Each structure is given as a SMILES string. Counter-ions that a name gives are not always drawn. ± gives the standard deviation of the averaged measurements. The full ranking holds about 2,000 compounds; the median of “relative cell viability vs DMSO, compound + 0.2 uM CuET” is about 1, and the lowest 2% start at about 0.25. Some of the results follow.

In the experiment the test system is TE10. Nature of the experiment: relative cell viability vs DMSO, compound + 0.2 uM CuET (fraction); TE10 is an esophageal squamous carcinoma line; higher = less cytotoxic. The settings on record: 2 µM; co-treatment: CuET (bis(diethyldithiocarbamate)copper) 0.2 uM; 48 h. The procedure: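 TE10 ESCC cells (1,000/well, 384-well plates) were treated with Selleck bioactive library compounds at 2 uM combined with 0.2 uM CuET (copper diethyldithiocarbamate) for 48 h. Viability was read by CellTiter-Glo and expressed relative to DMSO wells. Two technical replicates (A, B).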
With `Cn1cc(/C=C/C(=O)c2cccc(F)c2)cc1/C=C/C(=O)NO`, the relative cell viability amounted to 0.872 ± 0.12.

Consider `Cc1nc(N(C)C(=O)Cc2ccc(-c3ccccn3)cc2)sc1S(N)(=O)=O` [Pritelivir (BAY 57-1293)], for which the relative cell viability was found to be 1.26 ± 0.18.

Regarding `Nc1nccc2c1ncn2C1C=C(CO)C(O)C1O` (stereo not drawn) [3-Deazaneplanocin A (DZNeP)], the relative cell viability came to 0.82 ± 0.011.

As for `COc1nc(C)cnc1NS(=O)(=O)c1cccnc1-c1ccc(-c2nnco2)cc1` [Zibotentan (ZD4054)], the relative cell viability came to 1.28 ± 0.12.

Turning to `C/C(O)=C(\C#N)C(=O)Nc1ccc(C(F)(F)F)cc1` [Teriflunomide], the relative cell viability is 1.03 ± 0.015.

In the case of `Nc1ccn([C@@H]2O[C@H](CO)[C@@H](O)[C@H]2O)c(=O)n1` [Cytidine], the relative cell viability came to 1.16 ± 0.047.

Consider `CC(C)NCCCn1c(Sc2cc3c(cc2I)OCO3)nc2c(N)ncnc21`, for which the relative cell viability stood at 0.745 ± 0.093.

Take `Cc1cccc(Nc2nc(-c3ccncc3)cs2)c1`: the relative cell viability was 1.17 ± 0.17.

As for `CN(C)CCC(c1ccccc1)c1ccccn1` (stereo not drawn) [Pheniramine Maleate], the relative cell viability came out at 1.05 ± 0.15.

In the case of `Cc1c(O)cccc1C(=O)N[C@@H](CSc1ccccc1)[C@H](O)CN1C[C@H]2CCCC[C@H]2C[C@H]1C(=O)NC(C)(C)C` [Nelfinavir Mesylate], the relative cell viability came out at 0.97 ± 0.16.

As for `O=c1cc(CN2CCOCC2)occ1OCCCCCSc1ccnc2cc(C(F)(F)F)ccc12`, the relative cell viability came to 1.13 ± 0.024.

In the case of `O[C@@H]1CO[C@H]2[C@@H]1OC[C@@H]2O` [Isosorbide], the relative cell viability turned out to be 1.13 ± 0.051.

`CCOc1ccc(Cc2cc([C@@H]3O[C@H](CO)[C@@H](O)[C@H](O)[C@H]3O)ccc2Cl)cc1` [Dapagliflozin]: the relative cell viability was found to be 0.908 ± 0.041.

As for `CN(C)CCN1C(=O)c2cccc3cc(N)cc(c23)C1=O` [Amonafide], the relative cell viability was 1.042 ± 0.0065.

For `CCCCC(C=O)NC(=O)C(CC(C)C)NC(=O)C(CC(C)C)NC(C)=O` (stereo not drawn), the relative cell viability is 0.305 ± 0.026.

Turning to `C[C@H]1c2cccc(O)c2C(O)=C2C(=O)[C@]3(O)C(O)=C(C(N)=O)C(=O)[C@@H](N(C)C)[C@@H]3[C@@H](O)[C@@H]21` [Doxycycline Hyclate], the relative cell viability is 1.31 ± 0.09.

`C[C@H]1c2cccc(O)c2C(O)=C2C(=O)[C@]3(O)C(O)=C(C(N)=O)C(=O)[C@@H](N(C)C)[C@@H]3[C@@H](O)[C@@H]21` [Doxycycline HCl]: the relative cell viability was found to be 1.34 ± 0.14.

`CCCCCCCCCCCCCCCCO` [1-Hexadecanol]: the relative cell viability was found to be 1.09 ± 0.14.

Regarding `CCCCOc1ccc(CC(=O)NO)cc1` [Bufexamac], the relative cell viability worked out at 1.06 ± 0.1.

For `Cc1ccc(O)c([C@H](CCN(C(C)C)C(C)C)c2ccccc2)c1` [Tolterodine tartrate], the relative cell viability came out at 1.13 ± 0.053.

For `Cc1cc(C)cc(NC(=O)Cc2ccc(OC(C)(C)C(=O)O)cc2)c1` [Efaproxiral Sodium], the relative cell viability was found to be 1.12 ± 0.078.

With `O=S(=O)(O)CCSSCCS(=O)(=O)O` [Dimesna], the relative cell viability stood at 1.08 ± 0.07.

`CO[C@H]1C(=O)[C@]2(C)[C@@H](OC)C[C@H]3OC[C@@]3(OC(C)=O)[C@H]2[C@H](OC(=O)c2ccccc2)[C@]2(O)C[C@H](OC(=O)[C@H](O)[C@@H](NC(=O)OC(C)(C)C)c3ccccc3)C(C)=C1C2(C)C` [Cabazitaxel]: the relative cell viability turned out to be 0.727 ± 0.15.

Regarding `Cc1cc(N2CCOCC2)cc2[nH]c(-c3c(NCC(O)c4cccc(Cl)c4)cc[nH]c3=O)nc12` (stereo not drawn), the relative cell viability was 0.799 ± 0.15.

Take `Clc1ccc(COC(Cn2ccnc2)c2ccc(Cl)cc2Cl)cc1` (stereo not drawn) [Econazole nitrate]: the relative cell viability is 0.78 ± 0.05.

Regarding `Clc1ccccc1C(c1ccccc1)(c1ccccc1)n1ccnc1` [Clotrimazole], the relative cell viability worked out at 0.816 ± 0.048.

On to `NC(=O)NO` [Hydroxyurea], for which the relative cell viability was 1.139 ± 0.003.

Consider `CCN(CCCc1ccccc1)CCCc1ccccc1` [Alverine Citrate], for which the relative cell viability came to 1.25 ± 0.14.

For the molecule `COc1cc2c(cc1OC)CN(CCc1ccc(NC(=O)c3cccc4c(=O)c5cccc(OC)c5[nH]c34)cc1)CC2`, the relative cell viability amounted to 0.999 ± 0.17.

For the molecule `O=C(O)c1ccc(N2C(=O)C(=Cc3ccc(-c4ccc([N+](=O)[O-])cc4)o3)C=C2c2ccccc2)cc1`, the relative cell viability worked out at 1.1 ± 0.22.

As for `CCc1cc(/C(C)=N/OCc2ccc(C3CCCCC3)c(C(F)(F)F)c2)ccc1CN1CC(C(=O)O)C1` [BAF312 (Siponimod)], the relative cell viability is 1.07 ± 0.027.

In the case of `Cc1cc(CS(=O)(=O)c2ccccc2)cc(OCc2ccc(CN3CCC[C@@H]3CO)cc2)c1`, the relative cell viability is 1.04 ± 0.04.

Turning to `O=C(Nc1ccc2c(O)cc(S(=O)(=O)O)cc2c1)Nc1ccc2c(O)cc(S(=O)(=O)O)cc2c1`, the relative cell viability came out at 1.04 ± 0.058.

Regarding `CC(C)(Oc1ccc(C2CC2(Cl)Cl)cc1)C(=O)O` (stereo not drawn) [Ciprofibrate], the relative cell viability came out at 1.07 ± 0.043.

For `Nc1nc(Nc2ccc(S(N)(=O)=O)cc2)nn1C(=O)c1c(F)cccc1F`, the relative cell viability is 0.765 ± 0.074.

`NC(=O)CCCSc1nc(N)nc(-c2c(Cl)cc3c4c(cccc24)COC3)n1`: the relative cell viability came to 0.687 ± 0.014.

As for `CC(C)c1onc(-c2c(Cl)cccc2Cl)c1COc1ccc(/C=C/c2cccc(C(=O)O)c2)c(Cl)c1`, the relative cell viability stood at 1 ± 0.044.

For `C=CCN1CCCC1CNC(=O)c1cc2nn[nH]c2cc1OC` (stereo not drawn) [Alizapride HCl], the relative cell viability came to 1.16 ± 0.049.

Turning to `NC(=O)[C@@H](CCC(F)(F)F)N(Cc1ccc(-c2ncon2)cc1F)S(=O)(=O)c1ccc(Cl)cc1`, the relative cell viability worked out at 1.19 ± 0.079.

As to `COc1ccc(CNCc2cccc3ccccc23)cc1`, the relative cell viability came out at 1.12 ± 0.17.

In the case of `Cc1[nH]c(/C=C2\C(=O)Nc3ccc(S(=O)(=O)Cc4c(Cl)cccc4Cl)cc32)c(C)c1C(=O)N1CCC[C@@H]1CN1CCCC1`, the relative cell viability stood at 1.09 ± 0.013.

For the molecule `N#CC(=C(/N)Sc1ccccc1N)/C(C#N)=C(\N)Sc1ccccc1N`, the relative cell viability was found to be 1.01 ± 0.013.

Consider `Cc1c(Cn2c(C)nc3c(C(=O)O)cc(N4CCOCC4)cc32)cccc1C(F)(F)F`, for which the relative cell viability was 0.825 ± 0.067.

As for `CCCCCCCCCCCCCCCC[N+](C)(C)C` [Cetrimonium Bromide (CTAB)], the relative cell viability was 1.02 ± 0.11.

With `O=C(NCc1ccc(Oc2ccccc2)cc1)c1nc(-c2cc(Br)c(O)c(Br)c2)no1`, the relative cell viability came to 1.04 ± 0.089.

For `CCCc1nc(C(C)(C)O)c(C(=O)OCc2oc(=O)oc2C)n1Cc1ccc(-c2ccccc2-c2nnn[nH]2)cc1` [Olmesartan Medoxomil], the relative cell viability turned out to be 1.06 ± 0.1.

For the molecule `Cn1c(=O)c2c(ncn2CC(O)CO)n(C)c1=O` (stereo not drawn) [Dyphylline], the relative cell viability was 1.055 ± 0.0018.

Turning to `Nc1nccs1` [Aminothiazole], the relative cell viability stood at 1.12 ± 0.036.

For `NC(=O)c1cccnc1` [Nicotinamide (Vitamin B3)], the relative cell viability came to 0.992 ± 0.04.

In the case of `NCc1c[nH]c(=S)n1[C@H]1CCc2c(F)cc(F)cc2C1` [Nepicastat (SYN-117) HCl], the relative cell viability amounted to 1.21 ± 0.12.

As to `COc1ccc(-c2cc3c(C)nc(N)nc3n([C@H]3CC[C@H](OCCO)CC3)c2=O)cn1`, the relative cell viability turned out to be 0.648 ± 0.035.

For the molecule `Cn1c(=O)c(F)c(Nc2ccc(I)cc2F)c2c(=O)n(C[C@@H](O)CO)cnc21`, the relative cell viability was 0.791 ± 0.065.

Take `COc1ccc(/C=C/C(=O)C2(C(=O)/C=C/c3ccc(OC)c(OC)c3)CCCCC2)cc1OC`: the relative cell viability stood at 0.238 ± 0.01.

Regarding `CC1=NN(c2ccc(C(=O)O)cc2)C(=O)C1=Cc1ccc(-c2cc(C)c(C)cc2[N+](=O)[O-])o1`, the relative cell viability is 0.872 ± 0.091.

Consider `CCC(C)(C)c1ccc(CC(C)CN2C[C@@H](C)O[C@@H](C)C2)cc1` (stereo partly drawn) [Amorolfine HCl], for which the relative cell viability was determined as 1.04 ± 0.046.

Consider `CCOC(=O)c1ccc(C#Cc2ccc3c(c2)C(C)(C)CCS3)nc1` [Tazarotene], for which the relative cell viability worked out at 1.09 ± 0.049.

With `CC(C)(C)C#Cc1cc(N(C(=O)[C@H]2CC[C@H](C)CC2)[C@H]2CC[C@H](O)CC2)c(C(=O)O)s1` [VX-222 (VCH-222, Lomibuvir)], the relative cell viability turned out to be 0.955 ± 0.024.

Consider `CC(C)N(CCC(=O)c1ccc2ccccc2c1)Cc1ccccc1`, for which the relative cell viability stood at 0.1814 ± 0.0002.

For `CCCNS(=O)(=O)Nc1ncnc(OCCOc2ncc(Br)cn2)c1-c1ccc(Br)cc1` [Macitentan], the relative cell viability amounted to 1.24 ± 0.077.

For `Nc1ccc(S(N)(=O)=O)cc1` [Sulfanilamide], the relative cell viability stood at 1.04 ± 0.017.

Take `CCN1CCC[C@H]1CNC(=O)c1cc(S(N)(=O)=O)ccc1OC` [Levosulpiride]: the relative cell viability is 1.06 ± 0.039.

Consider `CCOc1nc2cccc(C(=O)OC(C)OC(=O)OC3CCCCC3)c2n1Cc1ccc(-c2ccccc2-c2nn[nH]n2)cc1` (stereo not drawn) [Candesartan Cilexetil], for which the relative cell viability came out at 1.05 ± 0.078.

For the molecule `COc1ccccc1OCCNCC(O)COc1cccc2[nH]c3ccccc3c12` (stereo not drawn) [Carvedilol], the relative cell viability was 0.735 ± 0.083.

On to `CC(C)c1nc(CN(C)C(=O)N[C@H](C(=O)N[C@@H](Cc2ccccc2)C[C@H](O)[C@H](Cc2ccccc2)NC(=O)OCc2cncs2)C(C)C)cs1` [Ritonavir], for which the relative cell viability was 1.02 ± 0.012.

Turning to `COc1c(O)cc2c(c1O)[C@@H]1O[C@H](CO)[C@@H](O)[C@H](O)[C@H]1OC2=O` [Bergenin], the relative cell viability came to 1.18 ± 0.021.

For `CC(C)[C@H]1CC[C@H](C(=O)N[C@H](Cc2ccccc2)C(=O)O)CC1` [Nateglinide], the relative cell viability was found to be 1.03 ± 0.013.

In the case of `Nc1cccc(-c2cc3c(Oc4cccc(O)c4)ncnc3[nH]2)c1`, the relative cell viability stood at 0.976 ± 0.062.

Take `COc1ccc(C(C)=O)c(O)c1` [Paeonol]: the relative cell viability was found to be 1.13 ± 0.088.

For `COc1ccc(-n2nc(C(N)=O)c3c2C(=O)N(c2ccc(N4CCCCC4=O)cc2)CC3)cc1` [Apixaban], the relative cell viability was 0.954 ± 0.031.

`C[C@@H](O)[C@H]1C(=O)N2C(C(=O)OCOC(=O)C(C)(C)C)=C(SC3CN(C4=NCCS4)C3)[C@H](C)[C@H]12` [Tebipenem Pivoxil]: the relative cell viability amounted to 1 ± 0.12.

As for `CN[C@@H](C)C(=O)N[C@H](C(=O)N1CCC[C@H]1C(=O)N[C@H](C(=O)NCCCCCCNC(=O)[C@@H](NC(=O)[C@@H]1CCCN1C(=O)[C@@H](NC(=O)[C@H](C)NC)C1CCCCC1)C(c1ccccc1)c1ccccc1)C(c1ccccc1)c1ccccc1)C1CCCCC1`, the relative cell viability was determined as 0.437 ± 0.011.

As for `CCCCOc1ccc(OCCCN2CCOCC2)cc1` [Pramoxine HCl], the relative cell viability worked out at 1.18 ± 0.12.

Regarding `CC1CCc2cc(F)cc3c(=O)c(C(=O)O)cn1c23` (stereo not drawn) [Flumequine], the relative cell viability is 0.887 ± 0.23.

For `CNC(=O)CN1CCC(Oc2cc3c(Nc4cccc(Cl)c4F)ncnc3cc2OC)CC1` [AZD8931 (Sapitinib)], the relative cell viability was 1.05 ± 0.024.

Take `CCCS(=O)(=O)Nc1ccc(F)c(C(=O)c2c[nH]c3ncc(Cl)cc23)c1F`: the relative cell viability was found to be 1.21 ± 0.063.

`Nc1nc(N)nc(-c2cc(Cl)ccc2Cl)n1` [Irsogladine]: the relative cell viability turned out to be 1.13 ± 0.1.

Take `CCN1CCCC1CNC(=O)c1cc(S(=O)(=O)CC)c(N)cc1OC` (stereo not drawn) [Amisulpride]: the relative cell viability was 1.31 ± 0.29.

With `CCc1c(C(=O)NCCc2ccc(N3CCCCC3)cc2)[nH]c2ccc(Cl)cc12`, the relative cell viability turned out to be 0.759 ± 0.035.

Values taken from the supplement of paper PMC10670038.
